{"source": "PubChem BioAssay (Tox21)", "key": {"[1]": {"assay": "qHTS assay for small molecule agonists of the p53 signaling pathway (AID 651631; calls by dose curve; further: potency means the concentration at half of the fitted maximal effect; on activation: on the % scale 0 is the no-effect control and ±100 the full control effect; on all read-outs here: nearly all actives have a fitted effect of over 15% in size)", "settings": "HCT-116 p53RE-bla reporter, beta-lactamase FRET ratio, 16 h; activation: at 73.3 µM (top of the series) unless noted", "in_short": "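Agonist mode screen using a stably integrated beta-lactamase gene under p53 response elements in HCT-116 cells. Compound exposure lasts 16 h at 37 °C; fluorescence intensity is measured following 2 h FRET substrate loading.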"}, "[2]": {"assay": "qHTS assay for small molecule agonists of the p53 signaling pathway - cell viability (AID 651633; calls by dose curve; further: potency means the concentration at half of the fitted maximal effect; on all read-outs here: nearly all actives have a fitted effect of over 30% in size)", "in_short": "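p53RE-bla cells, seeded at 4,000 per well and rested 5 h at 37 C/5% CO2, received compounds in DMSO for 16 h at 37 C. CellTiter-Glo was then added, and luminescence was read after 30 min at room temperature to gauge cytotoxicity.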"}, "[3]": {"assay": "qHTS assay for small molecule disruptors of the mitochondrial membrane potential (AID 720635); further: potency means the concentration at half of the fitted maximal effect; on ratio activity, negative = MMP loss: on the % scale 0 is the no-effect control and ±100 the full control effect", "settings": "HepG2 mitochondrial membrane potential, Mito-MPS dye ratio; for Potency: ratio activity, negative = MMP loss: at 83.2 µM (top of the series) unless noted", "in_short": "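HepG2 cells (2,000/well) attached overnight at 37C, then took compound for 1 hr at 37C, 5% CO2. Mito-MPS dye was added for 30 min; fluorescence was read at 490/535 nm (monomers) and 540/590 nm (aggregates).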"}, "[4]": {"assay": "qHTS assay for identifying genotoxic compounds that show differential cytotoxicity against isogenic chicken DT40 cell lines with known DNA damage response pathways - Rev3 mutant cell line (AID 743014); further: nearly all actives have a fitted effect of over 55% in size; further: potency means the concentration at half of the fitted maximal effect; on activity, negative = cytotoxicity: on the % scale 0 is the no-effect control and ±100 the full control effect", "settings": "chicken DT40 Rev3-/- viability, CellTiter-Glo, 40 h; activity, negative = cytotoxicity: at 68.4 µM (top of the series) unless noted"}, "[5]": {"molecular_target": "Glucocorticoid receptor (Homo sapiens) (UniProt P04150)", "sequence (P04150 whole entry, looked up)": "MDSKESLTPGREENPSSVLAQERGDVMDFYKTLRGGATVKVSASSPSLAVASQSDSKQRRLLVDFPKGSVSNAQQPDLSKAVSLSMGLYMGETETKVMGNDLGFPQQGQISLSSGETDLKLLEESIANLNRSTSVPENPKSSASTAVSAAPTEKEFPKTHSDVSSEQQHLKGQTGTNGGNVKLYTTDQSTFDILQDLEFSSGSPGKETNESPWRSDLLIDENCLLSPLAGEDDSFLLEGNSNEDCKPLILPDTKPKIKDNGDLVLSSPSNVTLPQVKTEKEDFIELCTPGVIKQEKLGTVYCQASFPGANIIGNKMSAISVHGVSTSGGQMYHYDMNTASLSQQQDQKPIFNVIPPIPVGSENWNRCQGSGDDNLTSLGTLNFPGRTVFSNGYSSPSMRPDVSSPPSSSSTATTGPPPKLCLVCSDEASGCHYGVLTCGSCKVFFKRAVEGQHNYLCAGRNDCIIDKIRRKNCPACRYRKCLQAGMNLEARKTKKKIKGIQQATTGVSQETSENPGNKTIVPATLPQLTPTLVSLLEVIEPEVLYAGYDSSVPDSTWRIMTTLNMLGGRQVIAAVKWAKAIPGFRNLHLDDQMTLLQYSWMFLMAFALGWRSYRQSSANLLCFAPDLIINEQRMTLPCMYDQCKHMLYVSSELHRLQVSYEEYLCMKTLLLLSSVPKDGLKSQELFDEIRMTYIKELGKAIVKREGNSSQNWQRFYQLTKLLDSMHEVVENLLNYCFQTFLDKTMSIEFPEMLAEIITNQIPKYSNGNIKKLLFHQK", "assay": "qHTS assay to identify small molecule antagonists of the glucocorticoid receptor (GR) signaling pathway (AID 720692; active means well fitted inhibition curve with a large enough effect in the signal ratio in the repeat runs, not every such curve was filed as active; inconclusive means weak or mixed curves, or effect the other way; inactive means no such curve, though single readings can be large or run the other way; the % refers to the signal ratio; further: potency means the concentration at half of the fitted maximal effect)", "settings": "GR-bla HeLa, beta-lactamase FRET ratio, dexamethasone-stimulated, 18 h", "in_short": "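In a 1536-well cell format, compounds were added 4 h after seeding GR-bla HeLa cells, together with dexamethasone at 5 nM final; reporter activity was measured by FRET-substrate fluorescence following 18 h at 37 C.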"}, "[6]": {"assay": "qHTS assay for small molecules that induce genotoxicity in human embryonic kidney cells expressing luciferase-tagged ATAD5 (AID 651632); further: nearly all actives have a fitted effect of over 15% in size; further: potency means the concentration at half of the fitted maximal effect", "in_short": "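DMSO vehicle served as the control. HEK293T reporter cells, 16 hr at 37C, then 30 min Amplite at room temperature; ATAD5 induction is measured as luciferase activity.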"}, "[7]": {"assay": "qHTS assay for identifying genotoxic compounds that show differential cytotoxicity against isogenic chicken DT40 cell lines with known DNA damage response pathways - wild type cell line (AID 743012); further: nearly all actives have a fitted effect of over 60% in size; further: potency means the concentration at half of the fitted maximal effect", "settings": "DT40 wild type chicken cells viability, CellTiter-Glo, 40 h; activity change, negative = cytotoxicity: at 68.4 µM (top of the series) unless noted", "in_short": "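Viability of DNA repair-proficient chicken DT40 cells was assessed by CellTiter-Glo luminescence following 40 h compound exposure at 37 C/5% CO2.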"}, "[8]": {"assay": "qHTS assay for small molecule disruptors of the mitochondrial membrane potential - cell viability (AID 720634; calls by dose curve; further: potency means the concentration at half of the fitted maximal effect; nearly all actives have a fitted effect of over 20% in size)", "in_short": "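Viability of HepG2 cells is scored from ATP content by luminescence; cells are exposed to compound for 1 hr at 37 C and 5% CO2, then dosed with m-MPI dye before the CellTiter-Glo reagent.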"}, "[9]": {"assay": "qHTS assay to identify small molecule antagonists of the glucocorticoid receptor (GR) signaling pathway - cell viability counter screen (AID 720693); further: potency means the concentration at half of the fitted maximal effect; nearly all actives have a fitted effect of over 55% in size", "settings": "GR-bla HeLa viability, CellTiter-Glo luminescence, 18 h, with 5 nM dexamethasone present; viability change, negative = cytotoxic: at 58.5 µM (top of the series) unless noted"}, "[10]": {"molecular_target": "Glucocorticoid receptor (Homo sapiens) (UniProt P04150)", "assay": "qHTS assay to identify small molecule agonists of the glucocorticoid receptor (GR) signaling pathway (AID 720691; active means well fitted activation curve with a large enough effect in the signal ratio in the repeat runs, not every such curve was filed as active; inconclusive means weak or mixed curves, or effect the other way; inactive means no such curve, though single readings can be large or run the other way; the % refers to the signal ratio; further: on the % scale 0 is the no-effect control and ±100 the full control effect)", "settings": "GR-bla HeLa, beta-lactamase reporter ratio, 18 h; activation: at 62.4 µM (top of the series) unless noted", "in_short": "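Compounds in DMSO, alongside positive controls, were added to GR-bla HeLa reporter cells and incubated 18 h at 37 C; GRE-driven beta-lactamase was detected by fluorescence after 2 h with FRET substrate at room temperature.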"}, "[11]": {"assay": "qHTS assay for identifying genotoxic compounds that show differential cytotoxicity against isogenic chicken DT40 cell lines with known DNA damage response pathways - Rad54/Ku70 mutant cell line (AID 743015); further: potency means the concentration at half of the fitted maximal effect; nearly all actives have a fitted effect of over 60% in size", "settings": "DT40 Rad54/Ku70 mutant viability, CellTiter-Glo, 40 h; activity change, negative = cytotoxicity: at 66.8 µM (top of the series) unless noted"}, "[12]": {"settings": "activity change, negative = inhibition: at 58.5 µM (top of the series) unless noted"}}, "note": "“And” between values parts separate entries of the source, which are not always exact repeats. Identical values can stand only once. The inconclusive results got no clear call from the source; some entries with a clear call stand among them for comparison. For some assays here: A potency beside an inconclusive call is a rough fit, not a confirmed value. Some structures have more than one record in an assay (separate samples or runs), and their calls can disagree. The source made the active and inactive calls. Unless noted, the call rests on the fitted dose curve; in most records, active means well fitted curve in the direction sought with a large enough effect in the repeat runs; inconclusive means weak or mixed curves; inactive means no such curve, though single readings can be large; an effect the other way counts as inactive or inconclusive. Tags describe the fitted curve by direction and shape or compound fluorescence and quenching."}
{"smiles": "COc1ccc(C=O)cc1OC", "values": [{"measurement": "Potency", "setting": "[1]", "result": "inactive"}, {"measurement": "Potency", "setting": "[2]", "result": "inconclusive: 77.7 µM [cytotoxic, single point]"}, {"measurement": "ratio activity, negative = MMP loss", "setting": "[3]; at 83.2 µM (top of the series)", "result": "inconclusive: 17.8%"}, {"measurement": "ratio activity, negative = MMP loss", "setting": "[3]; at 95.3 µM (top of the series)", "result": "inconclusive: -7.16%"}, {"measurement": "Potency", "setting": "[4]", "result": "inactive"}]}
{"smiles": "BrC(Br)C(Br)(Br)Br", "values": [{"measurement": "Potency", "setting": "[1]", "result": "inconclusive: 15.4 µM [activator, partial curve]"}, {"measurement": "Potency", "setting": "[2]", "result": "inactive"}, {"measurement": "Potency", "setting": "[3]", "result": "inconclusive: 77.4 µM [inhibitor, single point]"}, {"measurement": "Potency", "setting": "[5]; [12]", "result": "inconclusive: 7.81 µM [activator, partial curve]"}]}
{"smiles": "N#CSCc1ccccc1", "values": [{"measurement": "Potency", "setting": "[1]", "result": "inconclusive: 27.4 µM [activator, single point]"}, {"measurement": "Potency", "setting": "[6]", "result": "inconclusive: 77.3 µM [activator, partial curve, poor fit]"}, {"measurement": "Potency", "setting": "[3]", "result": "inconclusive: 2.44 µM [inhibitor, single point]"}, {"measurement": "activity change, negative = inhibition", "setting": "[5]; [12]", "result": "inconclusive: 20.9% [at 78.9 µM]"}, {"measurement": "Potency", "setting": "[7]", "result": "inactive"}]}
{"smiles": "N#Cc1cc(I)c(O)c(I)c1", "values": [{"measurement": "Potency", "setting": "[1]", "result": "active: 4.33 µM"}, {"measurement": "Potency", "setting": "[2]", "result": "active: 34.4 µM"}, {"measurement": "Potency", "setting": "[8]", "result": "active: 4.33 µM"}, {"measurement": "Potency", "setting": "[5]; [12]", "result": "inconclusive: 9.77 µM [cytotoxic, partial curve, poor fit]"}, {"measurement": "Potency", "setting": "[9]", "result": "inconclusive: 49 µM [cytotoxic, single point]"}, {"measurement": "Potency", "setting": "[7]", "result": "inconclusive: 68.6 µM [cytotoxic, single point]"}]}
{"smiles": "Cc1c([N+](=O)[O-])c(C)c([N+](=O)[O-])c(C(C)(C)C)c1[N+](=O)[O-]", "values": [{"measurement": "Potency", "setting": "[1]", "result": "inconclusive: 34.4 µM [rising, partial curve, poor fit]"}, {"measurement": "Potency", "setting": "[6]", "result": "inactive"}, {"measurement": "Potency", "setting": "[3]", "result": "active: 15.4 µM"}, {"measurement": "Potency", "setting": "[10]", "result": "inactive"}, {"measurement": "Potency", "setting": "[11]", "result": "inconclusive: 68.6 µM [cytotoxic, single point]"}]}
{"smiles": "Cc1ccc(N=CN(C)C=Nc2ccc(C)cc2C)c(C)c1", "values": [{"measurement": "Potency", "setting": "[1]", "result": "inactive"}, {"measurement": "Potency", "setting": "[2]", "result": "inconclusive: 48.5 µM [cytotoxic, partial curve]"}, {"measurement": "Potency", "setting": "[3]", "result": "inconclusive: 68.9 µM [inhibitor, single point] and inconclusive: 43.2 µM [inhibitor]"}, {"measurement": "Potency", "setting": "[5]; [12]", "result": "inconclusive: 61.9 µM [cytotoxic, single point]"}, {"measurement": "activity change, negative = inhibition", "setting": "[5]; [12]", "result": "inconclusive: -27.9%"}, {"measurement": "activity change, negative = inhibition", "setting": "[5]; at 58.5 µM (top of the series)", "result": "inactive: 3.46%"}, {"measurement": "Potency", "setting": "[7]", "result": "inconclusive: 77.3 µM [cytotoxic, single point]"}, {"measurement": "Potency", "setting": "[4]", "result": "inconclusive: 68.9 µM [cytotoxic, single point]"}, {"measurement": "Potency", "setting": "[11]", "result": "inconclusive: 68.9 µM [cytotoxic, single point]"}]}
{"smiles": "CC(C)(C)C(O)C(Oc1ccc(Cl)cc1)n1cncn1", "note": "(stereo not given)", "values": [{"measurement": "Potency", "setting": "[1]", "result": "inconclusive: 0.0034 µM [rising, full curve, poor fit]"}, {"measurement": "Potency", "setting": "[2]", "result": "inconclusive: 68.6 µM [cytotoxic, partial curve, poor fit]"}, {"measurement": "Potency", "setting": "[8]", "result": "inconclusive: 68.6 µM [cytotoxic, partial curve, poor fit]"}, {"measurement": "Potency", "setting": "[3]", "result": "inconclusive: 0.486 µM [activator, full curve, poor fit]"}, {"measurement": "Potency", "setting": "[9]", "result": "inconclusive: 54.9 µM [rising, single point]"}, {"measurement": "Potency", "setting": "[7]", "result": "inconclusive: 0.545 µM [rising, full curve, poor fit]"}, {"measurement": "Potency", "setting": "[4]", "result": "active: 32.5 µM"}]}
{"smiles": "O=C1c2ccccc2C(=O)C1C(=O)C(c1ccccc1)c1ccccc1", "values": [{"measurement": "Potency", "setting": "[1]", "result": "inconclusive: 21.1 µM [activator, partial curve]"}, {"measurement": "Potency", "setting": "[2]", "result": "inconclusive: 7.5 µM [cytotoxic, partial curve, poor fit]"}, {"measurement": "activation", "setting": "[10]", "result": "inconclusive: -15%"}, {"measurement": "Potency", "setting": "[5]; [12]", "result": "active: 21.3 µM"}, {"measurement": "Potency", "setting": "[7]", "result": "inconclusive: 33.5 µM [cytotoxic, single point]"}, {"measurement": "Potency", "setting": "[4]", "result": "inconclusive: 33.5 µM [cytotoxic, single point]"}, {"measurement": "Potency", "setting": "[11]", "result": "inconclusive: 33.5 µM [cytotoxic, single point]"}]}
{"smiles": "COC(=O)C(Br)CBr", "note": "(stereo not given)", "values": [{"measurement": "activation", "setting": "[1]", "result": "inconclusive: 3.73%"}, {"measurement": "Potency", "setting": "[6]", "result": "inconclusive: 68.6 µM [activator]"}, {"measurement": "Potency", "setting": "[3]", "result": "inconclusive: 9.69 µM [activator, single point]"}, {"measurement": "Potency", "setting": "[5]; [12]", "result": "inactive"}]}
{"smiles": "O=C(O)C(Br)CBr", "note": "(stereo not given)", "values": [{"measurement": "Potency", "setting": "[1]", "result": "inconclusive: 31.2 µM [activator, partial curve, poor fit]"}, {"measurement": "Potency", "setting": "[6]", "result": "inconclusive: 69.8 µM [activator, partial curve, poor fit]"}, {"measurement": "Potency", "setting": "[7]", "result": "inconclusive: 15.6 µM [rising, full curve]"}, {"measurement": "Potency", "setting": "[4]", "result": "inconclusive: 62.2 µM [cytotoxic, partial curve]"}]}
{"smiles": "CC(C)=CC1C(C(=O)OCN2C(=O)C3=C(CCCC3)C2=O)C1(C)C", "note": "(stereo not given)", "values": [{"measurement": "Potency", "setting": "[1]", "result": "inconclusive: 21.1 µM [activator, partial curve, poor fit] and inconclusive: 43.3 µM [activator, partial curve, poor fit]"}, {"measurement": "Potency", "setting": "[2]", "result": "inconclusive: 48.6 µM [cytotoxic, partial curve, poor fit]"}, {"measurement": "Potency", "setting": "[8]", "result": "inconclusive: 11.9 µM [cytotoxic, partial curve, poor fit] and inconclusive: 48.6 µM [cytotoxic, partial curve]"}, {"measurement": "Potency", "setting": "[3]", "result": "active: 29.8 µM and active: 54.5 µM"}, {"measurement": "Potency", "setting": "[5]; [12]", "result": "inconclusive: 54.9 µM [inhibitor, single point]"}, {"measurement": "activity change, negative = inhibition", "setting": "[5]; [12]", "result": "inconclusive: -29.2%"}, {"measurement": "Potency", "setting": "[7]", "result": "inconclusive: 29.8 µM [cytotoxic, single point]"}, {"measurement": "Potency", "setting": "[4]", "result": "inconclusive: 30.6 µM [cytotoxic, full curve]"}, {"measurement": "Potency", "setting": "[11]", "result": "inconclusive: 33.5 µM [cytotoxic, single point]"}]}
